According to PubChem BioAssay AID1347165 (National Center for Advancing Translational Sciences (NCATS), 2019):
Where “and” joins values, the source holds several entries; their conditions need not be identical. Identical values can stand only once. Out of some 220,000 compounds screened, about 5,700 (2.6%) were called active. Inconclusive means that the source gave no clear call. Such entries were picked first, then a sample of the others. The call rests on the fitted dose curve; in most records, active means well fitted inhibition curve with a large enough effect; inconclusive means small, poorly fitted or top-dose-only effect; inactive means no such curve, though single readings can be large or run the other way. Potencies beside an inconclusive call are fits to weak or partial responses and may not hold up.

Target: Lysine-specific demethylase 5B (Homo sapiens) (UniProt Q9UGL1)
UniProt Q9UGL1, sequence (Q9UGL1 whole entry, looked up): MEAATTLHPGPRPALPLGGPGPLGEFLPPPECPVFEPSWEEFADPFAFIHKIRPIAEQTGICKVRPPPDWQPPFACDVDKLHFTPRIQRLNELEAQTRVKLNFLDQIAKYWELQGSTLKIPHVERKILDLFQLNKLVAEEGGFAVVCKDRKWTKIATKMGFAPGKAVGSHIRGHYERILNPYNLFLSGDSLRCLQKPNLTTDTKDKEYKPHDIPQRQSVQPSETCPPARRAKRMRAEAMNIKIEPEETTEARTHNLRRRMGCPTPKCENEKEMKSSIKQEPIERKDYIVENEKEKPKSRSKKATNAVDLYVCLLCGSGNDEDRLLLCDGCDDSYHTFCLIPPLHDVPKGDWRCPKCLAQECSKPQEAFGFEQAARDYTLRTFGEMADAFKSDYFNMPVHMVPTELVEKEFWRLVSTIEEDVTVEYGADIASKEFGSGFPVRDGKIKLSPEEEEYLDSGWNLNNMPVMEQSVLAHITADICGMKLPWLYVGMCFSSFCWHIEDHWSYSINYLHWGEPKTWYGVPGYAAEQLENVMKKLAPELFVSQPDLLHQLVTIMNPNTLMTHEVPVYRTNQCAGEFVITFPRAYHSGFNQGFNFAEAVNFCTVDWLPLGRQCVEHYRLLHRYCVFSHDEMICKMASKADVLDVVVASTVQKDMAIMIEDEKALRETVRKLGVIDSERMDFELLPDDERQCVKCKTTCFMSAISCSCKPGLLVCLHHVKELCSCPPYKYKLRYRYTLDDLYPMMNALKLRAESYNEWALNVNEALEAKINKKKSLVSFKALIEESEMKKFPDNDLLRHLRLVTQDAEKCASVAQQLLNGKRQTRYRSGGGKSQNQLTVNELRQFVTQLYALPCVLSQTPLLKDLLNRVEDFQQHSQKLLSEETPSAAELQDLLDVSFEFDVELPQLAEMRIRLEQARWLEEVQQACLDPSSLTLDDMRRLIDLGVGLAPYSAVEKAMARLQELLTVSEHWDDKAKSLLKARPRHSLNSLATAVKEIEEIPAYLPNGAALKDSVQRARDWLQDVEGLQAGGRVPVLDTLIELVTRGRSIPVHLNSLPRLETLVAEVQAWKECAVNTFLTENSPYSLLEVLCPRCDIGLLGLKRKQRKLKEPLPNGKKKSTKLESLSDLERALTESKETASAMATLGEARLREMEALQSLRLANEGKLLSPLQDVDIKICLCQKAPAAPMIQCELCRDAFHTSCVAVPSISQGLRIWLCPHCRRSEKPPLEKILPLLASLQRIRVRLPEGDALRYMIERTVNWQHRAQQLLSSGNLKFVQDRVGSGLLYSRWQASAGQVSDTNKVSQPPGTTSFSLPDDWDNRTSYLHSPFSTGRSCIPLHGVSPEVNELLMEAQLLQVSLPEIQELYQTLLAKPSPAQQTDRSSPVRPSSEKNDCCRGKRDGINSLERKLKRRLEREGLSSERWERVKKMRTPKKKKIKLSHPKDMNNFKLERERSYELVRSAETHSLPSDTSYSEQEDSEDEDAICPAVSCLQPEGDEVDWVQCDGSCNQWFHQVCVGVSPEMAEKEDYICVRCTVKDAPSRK
Assay: Primary screen for KDM5B Histone Demethylases FDH-coupled qHTS; further: nearly all actives have a fitted effect of over 70% in size
Conditions: FDH-coupled NADH fluorescence (FDH is formaldehyde dehydrogenase); series mostly up to 57.7 µM
How it was run: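 qHTS format, multiple compound concentrations. Buffer 50 mM HEPES pH 7.5/0.01% Tween-20; 200 nM KDM5BΔAP final; 10 min compound preincubation; substrate-mix levels 12.5 µM peptide, 25 µM α-KG, 0.25 mM NAD⁺; 30 min RT; ΔRFU.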
Potency means the concentration at half of the fitted maximal effect; tags describe the fitted curve by direction and shape.

| Compound | Potency |
| --- | --- |
| CCC1CCCCN1CCCNC(=O)c1cc2c(Cl)nc3ccccc3c2s1 (configuration not stated) | inconclusive: 12.6 µM [inhibitor, partial curve, poor fit] |
| COC[C@@H]1[C@H](NC(=O)CN2CCN(c3cccc(C)c3)CC2)[C@@H]2CCO[C@H]12 | inactive |
| CC[C@@]1(C(=O)O)C[C@H](C(=O)N(C)CCOC)[C@H](c2ccc(OC)cc2)N1C | inconclusive: 15.8 µM [inhibitor, partial curve, poor fit] |
| Cc1ccc(C)n1-c1nnc(N2CCCC(C(=O)Nc3ccc(C(C)C)cc3)C2)s1 (configuration not stated) | inconclusive: 10 µM [inhibitor, partial curve, poor fit] |
| CC1CCCN(c2ccc3ncccc3c2[N+](=O)[O-])C1 (configuration not stated) | inactive |
| Brc1cccc(-c2noc(-c3cnccn3)n2)c1 | inactive |
| COC(=O)c1ccccc1NC(=O)Cn1c(=O)n(Cc2ccc(C(=O)NCc3ccc4c(c3)OCO4)cc2)c(=O)c2ccccc21 | inconclusive: 2 µM [inhibitor, full curve, poor fit] |
| Cc1ccc2nc(-c3ccc(O)cc3)c(Nc3ccc4c(c3)OCCO4)n2c1 | inconclusive: 15.8 µM [inhibitor, partial curve, poor fit] and inconclusive: 10 µM [inhibitor, partial curve, poor fit] |
| O=C(NCc1ccccc1Cl)C(=O)NCC(c1cccs1)S(=O)(=O)c1cccs1 (configuration not stated) | inconclusive: 1.12 µM [inhibitor, full curve, poor fit] |
| CC(C)(C)NC(=O)N1CCCCCNC(=O)CC1c1ccccc1 (configuration not stated) | inconclusive: 25.1 µM [inhibitor, partial curve, poor fit] |
| CC1CCC(NC(=O)c2noc(-c3ccc(C#N)cc3)n2)CC1 (configuration not stated) | inactive |
| O=C(O)CN1CCC(CO)CC1 | inactive |
| Clc1ccc(Oc2cccc(CN3CCN(C4CCNC4)CC3)c2)cc1 (configuration not stated) | active: 15.8 µM |
| CCCn1c(-c2ccc(S(=O)(=O)N3CCOCC3)cc2)csc1=Nc1ccc(OCC)cc1 | inconclusive: 39.8 µM [inhibitor, single point] |
| CC(C)Cn1c(=O)c2ccccc2n2c(CCC(=O)N3CCN(c4ccccc4F)CC3)nnc12 | inactive |
| COc1ccc(OC)c(NC(=O)N2CCN(S(=O)(=O)c3ccc4c(ccn4C)c3)CC2)c1 | inconclusive: 2.82 µM [inhibitor, partial curve, poor fit] |
| COc1ccc(-c2ccc3ncc(Nc4cnccn4)n3n2)cc1OC | inconclusive: 31.6 µM [inhibitor, single point] |
| c1ccc(CCCN2Cc3[nH]cnc3C[C@H]2c2nc(-c3cnccn3)no2)cc1 | inconclusive: 28.2 µM [inhibitor, single point] |
| CCOc1ccc(CC(=O)NC2CCN(c3cc(-c4ccc(F)cc4)[nH]n3)C2)cc1OCC (configuration not stated) | active: 8.91 µM |
| CCc1noc(-c2cccn3c(CNC(=O)Cc4ccccc4Cl)nnc23)n1 | active: 20 µM |
| COc1cc(OC)cc(C(=O)Nc2ccc3nc(N4CCCCC4)cc(C)c3c2)c1 | inconclusive: 20 µM [inhibitor, partial curve, poor fit] |
| CCc1nc2c(c(-c3ccc(OC)cc3)n1)CCN(C(=O)c1ccc(C)cc1)CC2 | inactive |
| CC(C)NC(=S)N/N=C/C1CC=CCC1 (configuration not stated) | inactive |

| Compound | Potency |
| --- | --- |
| COc1ccc(OC)c(NC(=O)Cn2c(=O)n(Cc3ccccc3)c(=O)c3ccccc32)c1 | inconclusive: 39.8 µM [inhibitor, single point] |
| COc1ccccc1N(CCC#N)C(=O)CSc1ncnc2sc3c(c12)CCC3 | inactive |
| COc1ccc(-c2c3c(=O)n(C)c(=O)n(C)c3cn2-c2ccccc2O)cc1 | inconclusive: 39.8 µM [inhibitor, partial curve, poor fit] |
| Cc1ccc2nc(C(=O)N[C@H](c3cnn(C)c3)C3CC(O)C3)cn2c1 (some centres not stated) | active: 31.6 µM |
| C=CCOc1ccc(Br)cc1/C=C(/C#N)C(=O)Nc1ccccc1C(F)(F)F | inconclusive: 39.8 µM [inhibitor, single point] |
| CCCc1noc(-c2cccn3c(CNC(=O)C4CCCCC4)nnc23)n1 | inconclusive: 3.55 µM [inhibitor, partial curve, poor fit] |
| Cc1c(C(=O)NCc2ccccc2Br)oc2c1-c1[nH]ncc1CC2 | inconclusive: 28.2 µM [inhibitor, partial curve, poor fit] |
| CC(Sc1nc2ccc(F)cc2c(=O)[nH]1)C(=O)NC1CC1 (configuration not stated) | inactive |
| CC(=O)N1CC(CO)C2(CCN(Cc3cccc(C#N)c3)CC2)C1 (configuration not stated) | inactive |
| COc1cccc2c1Oc1ncccc1N(C(=O)Nc1ccc(F)c(Cl)c1)C2 | inconclusive: 15.8 µM [inhibitor, partial curve, poor fit] |
| CCC(=O)N1CCC(Oc2ccc(NC(=O)Cc3ccncc3)cn2)C1 (configuration not stated) | inactive |
| CCOC(=O)C(CC)Sc1ccc2nnc(CCNS(=O)(=O)c3ccc(C)cc3)n2n1 (configuration not stated) | inconclusive: 28.2 µM [inhibitor, partial curve, poor fit] |
| COc1ccc(C(C)NC(=O)c2cc3c(n2C)CCN(Cc2ccccc2)C3)cc1OC (configuration not stated) | inconclusive: 28.2 µM [inhibitor, partial curve] |
| CCN(CC)c1ccc(N=Cc2c3ccccc3cc3ccccc23)cc1 | inconclusive: 12.6 µM [inhibitor, partial curve, poor fit] |
| CN(C)S(=O)(=O)c1ccc(N2CCCCC2)c(C(=O)OC(C(=O)NC2CC2)c2ccccc2)c1 (configuration not stated) | inactive |
| NC(=O)C(Oc1cc(Cl)ccc1Cl)c1ccc(F)cc1 (configuration not stated) | inactive |
| Cc1ccsc1CNC(=O)c1ccccn1 | inactive |
| O=C(Nc1ccc(N2CCN(Cc3ccccc3)CC2)cc1)c1cnc2ccccc2n1 | inactive |
| O=S(=O)(Nc1cccn2nc(C3CC3)nc12)c1cccnc1 | active: 3.55 µM |
| CN1Cc2nc(NCc3ccccc3)ccc2OCC1=O | inconclusive: 35.5 µM [inhibitor, partial curve, poor fit] |
| CC(=O)Nc1cc(NC(C)=O)cc(-c2nc3ccccc3[nH]2)c1 | inconclusive: 14.1 µM [inhibitor, partial curve, poor fit] |
| CCN1CCN(C(=O)c2ccc3c(c2)n(Cc2cccc(F)c2)c(=O)c2ccnn23)CC1 | active: 25.1 µM |
| COC(=O)c1ccc(COC(=O)c2cc3c(s2)CCC3)o1 | inconclusive: 28.2 µM [inhibitor, partial curve, poor fit] |

| Compound | Potency |
| --- | --- |
| COc1ccc(C(CNC(=O)COc2ccc(Cl)c(C)c2)N2CCOCC2)cc1 (configuration not stated) | inconclusive: 17.8 µM [inhibitor, partial curve, poor fit] |
| Cc1ccc(C)c(-c2cc3ccccc3[nH]2)c1 | inconclusive: 25.1 µM [inhibitor, partial curve, poor fit] |
| COC(=O)[C@@H]1Cc2ncn(C(C)C)c2CN1S(=O)(=O)c1cccc2c(N(C)C)cccc12 | inconclusive: 31.6 µM [inhibitor, single point] |
| Cc1noc(-c2ccn3c(CNC(=O)c4ccco4)nnc3c2)n1 | active: 28.2 µM |
| CCN(CC)CCNC(=O)c1ccc2c(c1)sc1nc(-c3ccc(F)cc3)cn12 | inconclusive: 14.1 µM [inhibitor, partial curve, poor fit] |
| CC(C)(CNC(=O)C1(c2ccccc2)CCC1)C(N)=O | inactive |
| O=C(Nc1ccc(F)cc1)c1ccc2cncn2c1 | inconclusive: 28.2 µM [inhibitor, partial curve] |
| O=C(c1ccccc1F)N1CCCC(Cc2nc(C3CCOCC3)no2)C1 (configuration not stated) | inconclusive: 39.8 µM [inhibitor, single point] |
| CN1C(=O)C(CC(=O)NCCCN2CCc3ccccc3C2)=C2CCCCC21 (configuration not stated) | inconclusive: 22.4 µM [inhibitor, partial curve] |
| Cc1cc(C)cc(NC2=CC(c3cccc(F)c3)N(c3cc(C)cc(C)c3)C2=O)c1 (configuration not stated) | inconclusive: 31.6 µM [inhibitor, single point] |
| O=C(c1cc(=O)[nH]c2ccccc12)N1CCC(Cc2ccccc2)CC1 | inconclusive: 28.2 µM [inhibitor, single point] |
| COCc1ccc2c(c1)c(OC(C)(C)C(=O)NCCc1cccnc1)nn2CCC(C)C | inconclusive: 28.2 µM [inhibitor, partial curve, poor fit] |
| CCOC(=O)c1cc2c(=O)n3ccccc3nc2n(CCCOC)c1=NC(=O)C(C)Oc1ccccc1 (configuration not stated) | inconclusive: 3.16 µM [inhibitor, full curve, poor fit] |
| CCOC(=O)c1cnc(SCC(=O)Nc2cccc(Br)c2)nc1N | inactive |
| COc1ccc(-c2cc3nc4c(c(=O)n3[nH]2)CN(C(=O)c2ccc3[nH]ccc3c2)CC4)cc1 | active: 15.8 µM |
| Cc1ccc(CNC(=O)c2ccc(Cn3c(SCc4ccccc4F)nc4cccnc43)cc2)cc1 | inconclusive: 35.5 µM [inhibitor, partial curve, poor fit] |
| COc1ccc(C(=O)N2C[C@@H](Oc3ccccc3)C[C@H]2C(=O)N2CCCC2)cc1 | inconclusive: 31.6 µM [inhibitor, partial curve, poor fit] |
| CCC(=O)N1CCc2cn(C)c3cccc(c23)C1 | inconclusive: 28.2 µM [inhibitor, single point] |
| Fc1ccc(-c2nnc3ccc(NC4CCC4)nn23)nc1 | inactive |
| O=C(COc1ccc(F)cc1)N1CCC(Oc2ncccc2C(=O)N2CCCCC2)C1 (configuration not stated) | inactive |
| CCN1CCC(N(Cc2cccs2)C(=O)Nc2cc(Cl)ccc2C(=O)OC)CC1 | inactive |
